Measurements as given in the CheMixHub ionic liquid set.
The source gives many values for each of these; only a part stands here.

Assay: xn = mol fraction of the nth substance listed

CCCCCC[n+]1ccn(C)c1.C[C@H](N)C(=O)[O-] + O
100 kPa, x1 = 0.01801
Settings | viscosity [mPa·s]
293.15 K | 2.103
298.15 K | 1.827
303.15 K | 1.595
308.15 K | 1.408
313.15 K | 1.255
318.15 K | 1.113
323.15 K | 1.006
328.15 K | 0.914

CCOS(=O)(=O)[O-].CC[n+]1ccn(C)c1 + O
Settings | viscosity [mPa·s]
293.15 K, 101 kPa, x1 = 0.151 | 7.07
293.15 K, 101.3 kPa, x1 = 0.002698 | 1.107
298.15 K, 101 kPa, x1 = 0.003 | 0.93
298.15 K, 101 kPa, x1 = 0.047 | 2.18
298.15 K, 101.3 kPa, x1 = 0.001795 | 0.96
298.15 K, 101.3 kPa, x1 = 0.002698 | 0.987
303.15 K, 101 kPa, x1 = 0.047 | 1.91
303.15 K, 101.3 kPa, x1 = 0.001795 | 0.845
303.15 K, 101.3 kPa, x1 = 0.002698 | 0.876
303.15 K, 101.3 kPa, x1 = 0.003589 | 0.899
308.15 K, 101.3 kPa, x1 = 0.001795 | 0.751
308.15 K, 101.3 kPa, x1 = 0.002698 | 0.788
308.15 K, 101.3 kPa, x1 = 0.003589 | 0.811
313.15 K, 101 kPa, x1 = 0.003 | 0.68
313.15 K, 101 kPa, x1 = 0.008 | 0.78
313.15 K, 101 kPa, x1 = 0.013 | 0.86
313.15 K, 101 kPa, x1 = 0.019 | 0.99
313.15 K, 101 kPa, x1 = 0.151 | 3.97
313.15 K, 101 kPa, x1 = 0.642 | 22.5
313.15 K, 101.3 kPa, x1 = 0.001795 | 0.679
313.15 K, 101.3 kPa, x1 = 0.002698 | 0.709
313.15 K, 101.3 kPa, x1 = 0.003589 | 0.727
328.15 K, 100 kPa, x1 = 0.008007 | 0.5856
328.15 K, 100 kPa, x1 = 0.009969 | 0.6066
328.15 K, 100 kPa, x1 = 0.01406 | 0.6467
328.15 K, 100 kPa, x1 = 0.0162 | 0.6557
